# Assay results reported in the supplement of paper PMC10338343.
# ± gives the standard deviation. Whole data set: some 5,500 sequences, median “pre-steady-state target cleavage rate” near 0.1, cut for the highest 2% near 0.64. This is a selection; strong and weak results do not stand in their true shares.
# Test system: MIWI (PIWIL1) piRISC loaded with piRNA #2 (30 nt)
# Experiment: pre-steady-state target cleavage rate (min^-1); MIWI and MILI are mouse PIWI proteins and EfPiwi is from a freshwater sponge; tags in brackets are library labels; higher = faster piRNA-guided slicing of the target
# Conditions: guide: piRNA #2 5'p-UUAGGUAACCCAGUAGAUCCAGAGGAAUUC; auxiliary factor: 500 nM mouse GTSF1
# How it was run: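 Cleave-'n-Seq measured uncleaved targets by sequencing after a transcribed, DNA-blocked target RNA library […] was mixed with 1 nM active affinity-purified piRISC holding one synthetic guide, with or without 500 nM GTSF1 partner protein, at 33 °C in HEPES–potassium acetate buffer for 0–8 or 0–960 min. Counts were normalised to depth and to weakly complementary targets, three trials were pooled, and k3 was capped at 0.0001 min^-1. A burst-and-steady-state fit gave the pre-steady-state cleavage rate.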
row,Sequence,pre-steady-state target cleavage rate
1,CUUUUCCUCAGGAUCUACAGGGUUACCUAA,0.277 ± 0.026
2,CUUAACCUCUGGAUCUACUGGGUUACACUAA,0.344 ± 0.042
3,CUUAUCCUCUGGAUCUACUGGGUAACCAAA,0.217 ± 0.064
4,GAAUUCCACUGGAACUACUGGGUUACCUAA,0.308 ± 0.043
5,CUUUUCCUCUGGAGUCUACUGGGUUACCUAA,0.336 ± 0.035
6,CUAUUCCUCUGGAUCUACUGGGUUUGCUAA,0.342 ± 0.064
7,CUUAAGGACUGGAUCUACUUGGUUACCUAA,0.00577 ± 0.0058
8,CAAUUCCGUCUGGAUCUACUGGGUUACCUAA,0.564 ± 0.063
9,CUUAAGGACUGGAUGUACUGCGUUACCUAA,0.0446 ± 0.037
10,CUAUUGCUCUGGAUCUACUGGGUUACCUAA,0.125 ± 0.029
11,CUAUUCGUCUGGAUCUACUGGGUUACCUUA,0.355 ± 0.049
12,CUUAAGCUCUGGAACUACUGGGUUACCUAA,0.148 ± 0.021
13,CUUAAGGUCUGGAUCUACUGGGUUAUCUAA,0.311 ± 0.048
14,GAAUUCCUCUGGAUCUUCUGGGUUAGCUAA,0.322 ± 0.051
15,CAAUUCCUCUGGAUCUACUGGGUUAGGAAA,0.00536 ± 0.0041
16,CUUAAGCUCUGGUUCUACUGGGUUAGCUAA,0.0396 ± 0.014
17,CUUAAGGAGUGGAUCUACUGUGUUACCUAA,0.326 ± 0.065
18,CUUAAGGUCUGGAAUCUACUGGGUUACCUAA,0.137 ± 0.026
19,CUUAAGGAGUGGCUCUACUGGGUUACCUAA,0.144 ± 0.014
20,CAAUUCCUCUCCAUCUACUGGGUUACCUAA,0.829 ± 0.057
21,CUAUUCCUGUGGAUCUACUGGGUUUCCUAA,0.29 ± 0.041
22,CUAUUGCUCUGGAUCUACAGGGUUACCUAA,0.0914 ± 0.014
23,CUUUUCCUCUGCAUCUACAGGGUUACCUAA,0.219 ± 0.019
24,CUUAACCUGUGGAUCUACUGGGUUACCUUA,0.289 ± 0.021

row,Sequence,pre-steady-state target cleavage rate
1,CAAAUCCUCUGGAUCUACUGGGUUAGCUAA,0.367 ± 0.062
2,CUUAAGCUCAGGAUCUAGUGGGUUACCUAA,0.0534 ± 0.013
3,CUAUUCCUCUGCAUCUACAGGGUUACCUAA,0.25 ± 0.028
4,GAAUUCCUCUGGAUCUACUGGGUUAGCCUAA,0.299 ± 0.036
5,CAAGUUCCUCUGGAUCUACUGGGUUACCUAA,0.287 ± 0.068
6,CUUAACCACUGGUUCUACUGGGUUACCUAA,0.432 ± 0.037
7,CUUAACCUCUGGAUCUACUGGGUUAGCCUAA,0.266 ± 0.042
8,CUACUUCCUCUGGAUCUACUGGGUUACCUAA,0.256 ± 0.046
9,CUUUUCCUCUGGAUGUACUGGGUAACCUAA,0.139 ± 0.032
10,CUUUUGCUCUGGAUCUACUGGGUUACGUAA,0.43 ± 0.036
11,CUAUUCCUCUGUAUCUACUGGGUUACCUAA,0.404 ± 0.048
12,CUUAAGGUCUGGAUCUAGUGGGUUAGCUAA,0.0201 ± 0.0071
13,GAAUUCCUCUGGAUCUAGUGGGUUACCAAA,0.134 ± 0.019
14,CUAUUCCUCUGGAUCUACUGUGUUACCUAA,0.696 ± 0.073
15,CUUAAGCUCUGGAUGUACUGGGUUACCUUA,0.146 ± 0.02
16,GAAUUCCUCUGGAUCAACUGGGUUACCUUA,0.208 ± 0.039
17,CUUAAGCUCUGGAUCGACUGGGUUACCUAA,0.103 ± 0.015
18,CUUAUCCUCUGGUAGUACUGGGUUACCUAA,0.165 ± 0.021
19,CUUAUCCUGUGGAUCUACUGGCUUACCUAA,0.0566 ± 0.02
20,GAAUUCCUCUGGAUCUACUGGCAUACCUAA,0.00471 ± 0.003
21,CUUAUCCUCUGAAUCUACUGGGUUACCUAA,0.214 ± 0.03
22,CUUAACGUCUGGAUCUAGUGGGUUACCUAA,0.0606 ± 0.0092
23,CUUAAGGUCUGGAUCUAGUGGGUUACGUAA,0.124 ± 0.021
24,GAAUUCCUCUGCAUCUACUGGGUUACCUAA,0.421 ± 0.051

row,Sequence,pre-steady-state target cleavage rate
1,CUUAAGGUCUGGAUCUACUGGGUUACCUUA,0.118 ± 0.016
2,CUUAAGCUCUCGAUCUACUGGGUUAGCUAA,0.0646 ± 0.014
3,CAAUUCCUCUGCAUCUACAGGGUUACCUAA,0.291 ± 0.029
4,CAAUUCCUCUGCAUCUAGUGGGUUACCUAA,0.211 ± 0.02
5,CUUAAGCUCUGGAUCUACAGGGUUUCCUAA,0.0598 ± 0.0086
6,CUUUUCCUCUGGUUCUAGUGGGUUACCUAA,0.177 ± 0.02
7,CAAUUCCUCUGGAACUACUGGGUAACCUAA,0.235 ± 0.035
8,CUUAAGGAGAGGAUGCUACUGGGUUACCUAA,0.00368 ± 0.0029
9,CUUAUGCCUCUGGAUCUACUGGGUUACCUAA,0.198 ± 0.028
10,CUUUAGCUCUGGAUCUACUGGGUUACCUAA,0.113 ± 0.022
11,CUUAAGGUCUGGAUCUUCUGGGUUACCAAA,0.0379 ± 0.015
12,CAAUACCUCUGGAUCUACUGGGUUACCUUA,0.36 ± 0.061
13,GAAUUCCUCUGGAUCCACUGGGUUACCUAA,0.249 ± 0.047
14,CUUUUCCUCUGGAUCUACUGGCGUUACCUAA,0.0048 ± 0.0024
15,CUUAAGGUCUGGAUCUACUGGGUUACCUAG [g2:g23:cont:t1G],0.167 ± 0.018
16,CAAUACCUCUGGAACUACUGGGUUACCUAA,0.446 ± 0.04
17,CAUUUCCUCUGGAUCUACUGGGUUACCAAA,0.607 ± 0.077
18,CUUAAGCAGUGGAUCUACUGGGUUACCUAA,0.161 ± 0.018
19,CUUAUCCUCUGCAUCUACAGGGUUACCUAA,0.19 ± 0.016
20,GAAUUCCUCUGGAUCUACAGGGUUACGUAA,0.285 ± 0.028
21,GAAUUCCUGUGGAUCUUCUGGGUUACCUAA,0.24 ± 0.046
22,CUUAAGGUCUGUAUCUACUGGGUUACCUAA,0.15 ± 0.049
23,CUUAAGGUCUGGAACUACUGGGUUAGCUAA,0.0612 ± 0.029
24,CUUAUCCUCAGGAUCUACUGGGUUACGUAA,0.529 ± 0.064
